From paper PMC4336329 (PLoS ONE, 2015) come the findings set out here.

Screen size: about 310,000 compounds; about 14,000 (4.5%) showed an effect of 50% or more. Effects have a minus sign here. This is one part of the list.
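Also: peak tail current of the secondary pulse compared with the same well before compound.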

In this assay the target is human ether-à-go-go-related gene (hERG) potassium channel (human, UniProt Q12809). Nature of the assay: primary screen, population patch clamp on CHO cells stably expressing hERG.
Chain of human ether-à-go-go-related gene (hERG) potassium channel (Q12809 whole entry, looked up): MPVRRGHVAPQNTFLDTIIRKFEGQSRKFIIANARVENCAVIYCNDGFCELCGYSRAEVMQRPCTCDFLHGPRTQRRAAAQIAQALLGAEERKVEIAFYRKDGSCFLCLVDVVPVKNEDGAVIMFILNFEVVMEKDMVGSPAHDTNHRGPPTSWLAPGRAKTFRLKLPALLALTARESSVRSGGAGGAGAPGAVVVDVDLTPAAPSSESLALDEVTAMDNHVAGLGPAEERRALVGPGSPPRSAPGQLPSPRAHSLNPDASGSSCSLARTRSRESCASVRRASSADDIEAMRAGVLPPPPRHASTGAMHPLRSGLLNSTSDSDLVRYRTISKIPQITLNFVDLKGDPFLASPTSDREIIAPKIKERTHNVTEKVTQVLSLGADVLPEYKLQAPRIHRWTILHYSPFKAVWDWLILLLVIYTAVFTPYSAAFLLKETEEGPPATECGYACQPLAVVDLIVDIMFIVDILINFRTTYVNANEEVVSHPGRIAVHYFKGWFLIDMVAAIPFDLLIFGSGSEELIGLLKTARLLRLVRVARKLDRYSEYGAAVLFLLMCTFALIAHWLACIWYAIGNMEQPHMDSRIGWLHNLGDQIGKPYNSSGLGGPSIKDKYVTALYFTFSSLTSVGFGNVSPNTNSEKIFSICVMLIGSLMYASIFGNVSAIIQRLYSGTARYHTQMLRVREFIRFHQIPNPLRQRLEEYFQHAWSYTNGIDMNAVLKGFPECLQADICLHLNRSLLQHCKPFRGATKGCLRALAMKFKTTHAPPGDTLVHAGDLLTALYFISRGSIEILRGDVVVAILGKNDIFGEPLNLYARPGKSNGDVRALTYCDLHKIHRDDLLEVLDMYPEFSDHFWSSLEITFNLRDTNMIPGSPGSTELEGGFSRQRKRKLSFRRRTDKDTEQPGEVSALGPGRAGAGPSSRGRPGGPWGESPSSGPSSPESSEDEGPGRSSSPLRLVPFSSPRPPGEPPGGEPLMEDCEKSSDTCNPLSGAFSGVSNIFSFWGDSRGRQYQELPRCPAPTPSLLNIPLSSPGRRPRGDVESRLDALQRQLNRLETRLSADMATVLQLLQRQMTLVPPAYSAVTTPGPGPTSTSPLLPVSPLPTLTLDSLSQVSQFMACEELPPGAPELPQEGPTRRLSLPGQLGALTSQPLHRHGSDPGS
Turning to `O=C(Oc1ccc(Br)cc1C(=S)N1CCCC1)c1ccccc1F`, the “hERG current change (%, negative = inhibition) at 10uM” value is recorded as 3.94%.
Take `COC(=O)CS(=O)(=O)c1ccc(C)cc1`: the “hERG current change (%, negative = inhibition) at 10uM” value amounted to 34.8%.
As for `COc1ccc(OC)c(S(=O)(=O)N2CCN(c3ccccc3)CC2)c1`, the “hERG current change (%, negative = inhibition) at 10uM” value is -28.1%.
As to `Cc1ccc(S(=O)(=O)N(C)CC(=O)N2CCOCC2)cc1`, the “hERG current change (%, negative = inhibition) at 10uM” value worked out at 6.11%.
Take `Cc1ccc2nc(SCCC#N)nc(C)c2c1`: the “hERG current change (%, negative = inhibition) at 10uM” value stood at 1.8%.
Regarding `O=C(CC(Cc1ccccc1)C(=O)O)Nc1ccc(F)cc1` (stereo not drawn), the “hERG current change (%, negative = inhibition) at 10uM” value was 10.4%.
Under `Cc1nc(CNC(=O)c2ccccc2OC2CCN(S(C)(=O)=O)CC2)cs1` stands -6.71%; under `c1ccc(CNc2nc(NCc3ccco3)nc(N3CCOCC3)n2)cc1`, -28.5%.
With `COc1ccc(NC(=O)CSc2nnc(CNC(=O)c3ccco3)o2)cc1` the figure was 11.8%; with `CCN(CC)S(=O)(=O)c1ccc(N2CCCC2)c(NC(=O)CN2C(=O)NC3(CCCC3)C2=O)c1`, 2.65%.
On to `CCCCc1ccc(Nc2nc(CCC)cc(=O)[nH]2)cc1`, for which the “hERG current change (%, negative = inhibition) at 10uM” value is given as 5.17%.
On to `COC(=O)c1c(NC(=O)c2ccco2)sc(C(=O)N2CCCC2)c1C`, for which the “hERG current change (%, negative = inhibition) at 10uM” value is given as -4.55%.
On to `Cc1ccccc1/C=N/NC(=O)c1cccnc1`, for which the “hERG current change (%, negative = inhibition) at 10uM” value is -2.46%.
In the case of `CN1CCN(c2cc(-c3cc(O)c4ncccc4c3)ccn2)CC1`, the “hERG current change (%, negative = inhibition) at 10uM” value is 3.6%.
For the compound `c1ccc2nc(N3CCOCC3)c(N3CCOCC3)nc2c1`, the “hERG current change (%, negative = inhibition) at 10uM” value was -1.12%.
With `COC(=O)c1cc2nc(-c3ccc(OC)c(OC)c3)cc(C(F)(F)F)n2n1`, the “hERG current change (%, negative = inhibition) at 10uM” value is 22.4%.
For the compound `CCCN(C(=O)CSc1nc2cc(S(=O)(=O)N(CC)CC)ccc2o1)C1CCS(=O)(=O)C1` (stereo not drawn), the “hERG current change (%, negative = inhibition) at 10uM” value is recorded as -14.5%.
As to `COc1ccc(S(=O)(=O)N2CCCCCC2)cc1C(=O)N(C)CC(=O)Nc1ccccc1C(F)(F)F`, the “hERG current change (%, negative = inhibition) at 10uM” value is -23%.
Under `CC(C)c1ccccc1-n1c(SCC(=O)N2CCN(c3ccccc3)CC2)nnc1-c1cccnc1` stands -24.3%; under `Cc1ccnc(NS(=O)(=O)c2ccc(NC(=O)C3CCCNC3=O)cc2)n1` (stereo not drawn), -10.7%.
Take `CCCN1C(=O)/C(=c2\sc3nc(=O)c(Cc4ccc(C)cc4)nn3c2=O)c2ccccc21`: the “hERG current change (%, negative = inhibition) at 10uM” value worked out at 21.2%.
As for `N/C(=N\c1nc2ccccc2o1)NC(=O)c1ccc([N+](=O)[O-])cc1`, the “hERG current change (%, negative = inhibition) at 10uM” value is recorded as -4.98%.
Under `Cc1ccc(S(=O)(=O)N2CCOC2CNC(=O)C(=O)NCCCc2ccccc2)cc1` (stereo not drawn) stands 3.65%; under `Cl.O=C(Nc1cccc(C(F)(F)F)c1)c1cccnc1N1CCOCC1`, 17.3%; under `Cc1ccc(NC(=O)O/N=C/c2ccc(N(C)C)cc2)cc1`, 14.6%.
`COc1ccc(N2CCN(C(=O)c3ccc4c(=O)n(CCc5ccc(OC)c(OC)c5)c(=O)[nH]c4c3)CC2)cc1`: the “hERG current change (%, negative = inhibition) at 10uM” value turned out to be 8.27%.
Under `CCC(CC)NC(=O)CSc1nnc(-c2ccc(OC)cc2)n1C(C)C` stands -12.4%; under `CN(CC(=O)Nc1c(Cl)cccc1Cl)C(=O)c1ccncc1`, 19.4%.
With `O=C(Nc1ccc(N2CCOCC2)cc1)C1CC(=O)N(c2ccc(Cl)cc2)C1` (stereo not drawn), the “hERG current change (%, negative = inhibition) at 10uM” value is recorded as 2.53%.
On to `COc1ccc(Cc2[nH]n3c(=O)c(Cl)c(C)nc3c2-c2ccccc2)cc1`, for which the “hERG current change (%, negative = inhibition) at 10uM” value is given as 12.5%.
For `N/C(=N\NC(=O)Nc1ccc(Cl)cc1)c1ccccn1`, the “hERG current change (%, negative = inhibition) at 10uM” value is reported as -35.5%.
Turning to `Cc1oc(-c2ccc(Cl)cc2)nc1CS(=O)CC(=O)NCc1ccccn1` (stereo not drawn), the “hERG current change (%, negative = inhibition) at 10uM” value is given as -10.7%.
Turning to `Cc1nnc(N(Cc2ccco2)C(=O)c2cccc(C#N)c2)s1`, the “hERG current change (%, negative = inhibition) at 10uM” value is given as -1.98%.
On to `O=C(c1ccc(F)cc1)C1CCN(C(=S)Nc2ccccc2)CC1`, for which the “hERG current change (%, negative = inhibition) at 10uM” value is on record as -28.8%.
With `COc1ccc(C2C3=C(CCCC3=O)Nc3nc(C(F)(F)F)nn32)cc1OC` (stereo not drawn), the “hERG current change (%, negative = inhibition) at 10uM” value is listed as 4.17%.
Consider `N#Cc1cccnc1N1CCN(C(=O)COCC(=O)O)CC1`, for which the “hERG current change (%, negative = inhibition) at 10uM” value stood at 9.97%.
`COCC(C)n1c(C)cc(C(=O)COC(=O)c2ccc(N3CCCC3=O)cc2)c1C` (stereo not drawn): the “hERG current change (%, negative = inhibition) at 10uM” value is on record as 11.6%.
Under `Cc1noc(C)c1S(=O)(=O)N1CCC(C(=O)N2CCN(c3ccc(Cl)cc3)CC2)CC1` stands -51.7%.
With `CCOc1cc(/C=C2\SC(=S)N(NS(=O)(=O)c3ccc(C)cc3)C2=O)ccc1O` the figure was -27.7%; with `Cc1noc(C)c1CN1C(=O)c2ccc([N+](=O)[O-])cc2C1=O`, 0.754%; with `Cc1cc(C)c(NC(=O)CN2C(=O)NC3(CCCc4ccccc43)C2=O)c(Cl)c1` (stereo not drawn), 1.14%.
Regarding `COC(=O)C(/C=N/O)NC(=O)c1ccccc1` (stereo not drawn), the “hERG current change (%, negative = inhibition) at 10uM” value amounted to 4.38%.
As to `COc1ccc(N2CCN(C(=O)CSc3nc4cc(OC)c(OC)cc4cc3C#N)CC2)cc1`, the “hERG current change (%, negative = inhibition) at 10uM” value is -22.2%.
Turning to `CCCCN(C)CCCN1C(=O)C2C(C(=O)Nc3cccc(OC)c3)C3C=CC2(O3)C1C(=O)NC1CCCCC1C` (stereo not drawn), the “hERG current change (%, negative = inhibition) at 10uM” value is given as -21.6%.
Regarding `CCOC(=O)CSc1ncnc2c1cnn2-c1ccc(Cl)cc1`, the “hERG current change (%, negative = inhibition) at 10uM” value came to 8.88%.
On to `COc1ccc(NC(=O)CSc2nnc(CN3CCOCC3)n2-c2ccccc2)cc1Cl`, for which the “hERG current change (%, negative = inhibition) at 10uM” value is on record as -40.7%.
For `N#C/C(=C\c1cccs1)C(=O)Nc1ccccn1`, the “hERG current change (%, negative = inhibition) at 10uM” value was determined as 2.39%.
For `O=C(NCCc1ccccc1)C(=O)NCC1OCCCN1S(=O)(=O)c1ccc(F)cc1` (stereo not drawn), the “hERG current change (%, negative = inhibition) at 10uM” value is -17.1%.
For `CC(C)CNC1=C(C(=S)Nc2ccccc2)C(=O)CC(C)(C)C1`, the “hERG current change (%, negative = inhibition) at 10uM” value was determined as 6.14%.
With `CCOc1ccc(C2NCCc3cc(OC)c(OC)cc32)cc1OC` (stereo not drawn) the figure was 12.3%; with `CN1CCN(C(=O)C2(NC(=O)NCc3ccccc3)CCCCC2)CC1`, 13.2%.
Take `NC(=O)CC(NC(=O)Cc1cccc2ccccc12)c1ccc(NC2CCCCCCC2)c([N+](=O)[O-])c1` (stereo not drawn): the “hERG current change (%, negative = inhibition) at 10uM” value is reported as 6.61%.
Take `COc1ccc(-c2csc(NC3OC(=O)c4c3ccc(OC)c4OC)n2)cc1OC` (stereo not drawn): the “hERG current change (%, negative = inhibition) at 10uM” value turned out to be 9.71%.
`Cc1cccc(C)c1OCC(N)C(C)C.I` (stereo not drawn): the “hERG current change (%, negative = inhibition) at 10uM” value is reported as -8.48%.
